# The shares of active, inactive and inconclusive entries below differ from those in the screen. For some of these results: A potency beside an inconclusive call is a rough fit, not a confirmed value. Activity calls are given as the source filed them. The call rests on the fitted dose curve; in most records, active means well fitted curve in the direction sought with a large enough effect in the repeat runs; inconclusive means weak or mixed curves; inactive means no such curve, though single readings can be large; an effect the other way counts as inactive or inconclusive.
# How the values were obtained:
# [1] = Human pregnane X receptor (PXR) small molecule agonists, qHTS cell viability counter screen (AID 1346977); conditions: PXR-Luc HepG2 viability, CellTiter-Fluor, 24 h; series mostly up to 92.4 µM; further: nearly all actives have a fitted effect of over 50% in size; further: potency means the concentration at half of the fitted maximal effect
# Method in brief: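 Cytotoxicity counter screen run in the same wells as the PXR luciferase assay, using PXR-Luc HepG2 cells in charcoal-stripped serum medium. Viability: CellTiter-Fluor fluorescence after 24hr compound treatment.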
# [2] = biological target: Cytochrome P450 2C19 (Homo sapiens) (UniProt P33261); assay: Cytochrome P450 Family 2 Subfamily C Member 19 (CYP2C19) small molecule antagonists: luciferase reporter qHTS assay (AID 1671197); conditions: P450-Glo CYP2C19 enzyme, luciferin luminescence, 1 h; series mostly up to 115 µM; further: nearly all actives have a fitted effect of over 65% in size
# Chain of UniProt P33261 (P33261 whole entry, looked up): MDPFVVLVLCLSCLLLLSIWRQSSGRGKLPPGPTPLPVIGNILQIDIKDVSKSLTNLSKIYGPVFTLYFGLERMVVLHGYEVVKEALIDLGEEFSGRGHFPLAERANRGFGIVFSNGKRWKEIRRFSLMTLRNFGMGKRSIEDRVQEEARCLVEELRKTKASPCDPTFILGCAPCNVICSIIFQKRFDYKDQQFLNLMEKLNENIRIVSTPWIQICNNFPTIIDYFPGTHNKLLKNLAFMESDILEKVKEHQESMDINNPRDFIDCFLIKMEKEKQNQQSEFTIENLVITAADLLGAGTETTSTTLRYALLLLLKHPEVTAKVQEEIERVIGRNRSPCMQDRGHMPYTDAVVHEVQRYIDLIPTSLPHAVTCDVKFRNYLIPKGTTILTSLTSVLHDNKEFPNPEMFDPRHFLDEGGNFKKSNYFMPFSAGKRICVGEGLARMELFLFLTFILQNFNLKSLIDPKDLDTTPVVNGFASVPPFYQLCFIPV
# Method in brief: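 Compounds were tested on CYP2C19 activity via proluciferin conversion to luciferin. The 37C, 1 h reaction followed NADPH addition; detection reagent stopped it.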
# [3] = biological target: Cytochrome P450 1A2 (Homo sapiens) (UniProt P05177); assay: Cytochrome P450 Family 1 Subfamily A Member 2 (CYP1A2) small molecule antagonists: luciferase reporter qHTS assay (AID 1671199); conditions: P450-Glo CYP1A2 enzyme, luciferin luminescence, 1 h; series mostly up to 115 µM; further: nearly all actives have a fitted effect of over 50% in size
# Chain of UniProt P05177 (P05177 whole entry, looked up): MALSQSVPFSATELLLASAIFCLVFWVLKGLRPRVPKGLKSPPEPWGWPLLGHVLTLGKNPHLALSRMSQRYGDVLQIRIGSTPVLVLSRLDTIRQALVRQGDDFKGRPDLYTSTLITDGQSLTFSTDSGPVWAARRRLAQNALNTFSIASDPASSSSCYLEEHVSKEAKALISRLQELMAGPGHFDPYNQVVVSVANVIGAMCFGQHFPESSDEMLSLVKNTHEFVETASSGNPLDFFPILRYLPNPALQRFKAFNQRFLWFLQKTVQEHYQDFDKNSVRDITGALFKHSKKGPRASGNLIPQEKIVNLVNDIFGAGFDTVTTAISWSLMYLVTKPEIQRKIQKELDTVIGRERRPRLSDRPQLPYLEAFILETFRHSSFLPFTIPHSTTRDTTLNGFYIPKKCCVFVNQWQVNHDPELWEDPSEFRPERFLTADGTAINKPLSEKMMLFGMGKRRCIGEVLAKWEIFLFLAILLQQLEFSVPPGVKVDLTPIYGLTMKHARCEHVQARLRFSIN
# Method in brief: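 Room-temperature CYP1A2 reaction with proluciferin substrate: compounds added from DMSO, 10 min preincubation, NADPH regeneration for 1 h. Luciferin detection reagent then added; luminescence recorded as RLU.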
# [4] = biological target: Cytochrome P450 3A4 (Homo sapiens) (UniProt P08684); assay: Cytochrome P450 Family 3 Subfamily A Member 4 (CYP3A4) small molecule antagonists: luciferase reporter qHTS assay (AID 1671201); conditions: P450-Glo CYP3A4 enzyme, luciferin luminescence, 1 h; series mostly up to 115 µM; further: potency means the concentration at half of the fitted maximal effect; nearly all actives have a fitted effect of over 50% in size
# Chain of UniProt P08684 (P08684 whole entry, looked up): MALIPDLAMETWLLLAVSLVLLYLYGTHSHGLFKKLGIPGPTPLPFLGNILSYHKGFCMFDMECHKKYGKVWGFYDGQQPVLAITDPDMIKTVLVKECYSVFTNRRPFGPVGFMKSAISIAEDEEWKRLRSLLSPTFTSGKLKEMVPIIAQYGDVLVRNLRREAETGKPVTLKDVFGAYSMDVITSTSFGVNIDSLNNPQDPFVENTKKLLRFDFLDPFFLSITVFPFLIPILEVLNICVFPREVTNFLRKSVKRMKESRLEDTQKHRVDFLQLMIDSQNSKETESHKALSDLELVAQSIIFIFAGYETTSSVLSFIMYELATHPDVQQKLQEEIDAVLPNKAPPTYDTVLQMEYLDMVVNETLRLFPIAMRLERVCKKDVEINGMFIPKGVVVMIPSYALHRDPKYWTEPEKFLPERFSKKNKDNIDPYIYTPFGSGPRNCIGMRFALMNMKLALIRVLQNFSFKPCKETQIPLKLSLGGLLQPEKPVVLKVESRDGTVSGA
# Method in brief: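 qHTS, 1536-well. CYP3A4 + proluciferin substrate, cpd 10 min RT → NADPH regen 1 h RT → detection reagent 20 min → luminescence (RLU). Ketoconazole positive control.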
# [5] = Caspase-3/7 induction in HepG2 cells by small molecules, qHTS assay (AID 1346978); conditions: HepG2 caspase-3/7 activation, Caspase-Glo luminescence, 17 h; series mostly up to 92.4 µM; further: nearly all actives have a fitted effect of over 15% in size
# Method in brief: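 Wild-type HepG2 cells (2,000/well) were settled 5 h at 37 C, 5% CO2, then exposed to compounds in DMSO for 17 h. Caspase-3/7 activity was read by luminescence 30 min after adding Caspase-Glo 3/7 reagent at room temperature.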
# [6] = biological target: Cytochrome P450 2C9 (Homo sapiens) (UniProt P11712); assay: Cytochrome P450 Family 2 Subfamily C Member 9 (CYP2C9) small molecule antagonists: luciferase reporter qHTS assay (AID 1671198); conditions: P450-Glo CYP2C9 enzyme assay, luciferin luminescence; series mostly up to 115 µM; further: nearly all actives have a fitted effect of over 50% in size; further: potency means the concentration at half of the fitted maximal effect
# Chain of UniProt P11712 (P11712 whole entry, looked up): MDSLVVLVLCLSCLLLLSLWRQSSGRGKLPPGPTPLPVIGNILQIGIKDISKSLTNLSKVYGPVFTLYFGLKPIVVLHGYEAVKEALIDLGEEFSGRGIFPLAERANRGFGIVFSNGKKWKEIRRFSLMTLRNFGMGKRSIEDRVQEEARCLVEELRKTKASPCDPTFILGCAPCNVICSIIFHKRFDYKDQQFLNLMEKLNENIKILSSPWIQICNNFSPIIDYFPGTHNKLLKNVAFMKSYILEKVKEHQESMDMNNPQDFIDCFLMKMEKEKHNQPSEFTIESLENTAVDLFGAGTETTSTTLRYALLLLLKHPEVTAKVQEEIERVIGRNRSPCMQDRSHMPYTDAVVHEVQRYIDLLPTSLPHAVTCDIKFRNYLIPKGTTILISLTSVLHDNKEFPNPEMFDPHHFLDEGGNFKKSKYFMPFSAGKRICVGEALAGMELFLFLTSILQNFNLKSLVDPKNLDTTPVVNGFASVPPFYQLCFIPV
# Method in brief: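 CYP2C9 activity was measured with a P450-Glo proluciferin substrate. Enzyme–substrate mix was held with compound for 10 min at room temperature, then NADPH regeneration solution was added for 1 h at 37C. Luciferin product was read as luminescence.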
# [7] = Caspase-3/7 induction in CHO-K1 cells by small molecules, qHTS assay (AID 1346980); conditions: CHO-K1 caspase-3/7 induction, Caspase-Glo luminescence, 17 h; series mostly up to 92.4 µM; further: nearly all actives have a fitted effect of over 15% in size
# Method in brief: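 Wild-type cells were seeded at 1,500 per well and settled 5 hr at 37 C, 5% CO2, then exposed to DMSO-dissolved compounds for 17 hr. Caspase-Glo 3/7 reagent was added, and luminescence was read after 30min at room temperature.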
# [8] = Caspase-3/7 induction in HepG2 cells by small molecules, qHTS cell viability counter screen (AID 1346981); conditions: CellTiter-Fluor fluorescence, 17 h; series mostly up to 92.4 µM; further: potency means the concentration at half of the fitted maximal effect; nearly all actives have a fitted effect of over 30% in size
# Method in brief: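 After a 5-hr attachment period at 37 C and 5% CO2, wild-type HepG2 cells received compounds in DMSO. Sixteen hours later CellTiter-Fluor was dispensed and the fluorescent signal quantified after a further hour.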
# [9] = biological target: Nuclear receptor subfamily 1 group I member 2 (Homo sapiens) (UniProt O75469); assay: Human pregnane X receptor (PXR) small molecule agonists, qHTS assay (AID 1346982); conditions: PXR-Luc HepG2, CYP3A4 luciferase reporter, 24 h; series mostly up to 92.4 µM; further: potency means the concentration at half of the fitted maximal effect; nearly all actives have a fitted effect of over 35% in size
# Method in brief: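 Tox21 qHTS; PXR-Luc HepG2; compounds pinned from DMSO; 24 hr, 37 C; ONE-Glo luciferase detection, 30 min room temperature.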
# [10] = biological target: Nuclear receptor subfamily 1 group I member 2 (Rattus norvegicus) (UniProt Q9R1A7); assay: Rat pregnane X receptor (rPXR) activation by small molecules, qHTS assay (AID 1346983); conditions: rPXR luciferase reporter cells, One-Glo luminescence, 24 h; max activation: active compounds read high; further: potency means the concentration at half of the fitted maximal effect; nearly all actives have a fitted effect of over 20% in size
# Chain of UniProt Q9R1A7 (Q9R1A7 whole entry, looked up): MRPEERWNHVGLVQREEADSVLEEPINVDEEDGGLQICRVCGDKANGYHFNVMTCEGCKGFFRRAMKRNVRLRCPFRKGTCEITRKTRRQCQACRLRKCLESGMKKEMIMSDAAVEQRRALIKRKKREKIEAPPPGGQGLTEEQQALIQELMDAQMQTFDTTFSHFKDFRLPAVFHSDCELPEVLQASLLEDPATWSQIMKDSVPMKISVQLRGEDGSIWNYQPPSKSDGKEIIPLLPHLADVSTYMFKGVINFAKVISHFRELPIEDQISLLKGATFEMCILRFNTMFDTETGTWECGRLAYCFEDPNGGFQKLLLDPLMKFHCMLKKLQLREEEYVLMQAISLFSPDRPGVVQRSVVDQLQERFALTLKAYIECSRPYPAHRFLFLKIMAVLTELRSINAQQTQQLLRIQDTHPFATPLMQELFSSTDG
# Method in brief: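 Cell-based rPXR luciferase reporter assay, 2,000 cells per well, rested 5hr at 37 C before compound addition in DMSO, then 24 hr at 37 C. One-Glo reagent was added and luminescence read after 30 min at room temperature.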
# [11] = biological target: Nuclear receptor subfamily 1 group I member 2 (Homo sapiens) (UniProt O75469); assay: CYP3A4 induction through human pregnane X receptor (PXR) by small molecules, qHTS assay (AID 1346984); conditions: DPX-2 HepG2 PXR, CYP3A4-luciferin luminescence, 24 h; series mostly up to 46.1 µM; further: potency means the concentration at half of the fitted maximal effect; nearly all actives have a fitted effect of over 40% in size
# Method in brief: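 Cells (DPX-2; HepG2 with PXR element plus CYP3A4-promoter luciferase) settled 5hr, then were treated 24hr at 37C. A 3hr, 3uM-final Luciferin-IPA step preceded luminescence measurement with One-Glo.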
# Tags describe the fitted curve by direction and shape.
smiles,measurement,setting,value
C/C(=N\O)[C@@H](C)NCC(C)(C)CN[C@H](C)/C(C)=N/O,Potency,[1],"inconclusive: 16.8 µM [rising, partial curve, poor fit]"
same,Potency,[2],inactive
same,Potency,[3],inactive
same,Potency,[4],"inconclusive: 30.9 µM [inhibitor, partial curve]"
CO[Si](CCCn1c(=O)n(CCC[Si](OC)(OC)OC)c(=O)n(CCC[Si](OC)(OC)OC)c1=O)(OC)OC,Potency,[1],inactive
same,Potency,[2],inactive
same,Potency,[3],inactive
same,Potency,[4],active: 17.7 µM
Cc1ccc2ccc(Cl)cc2n1,Potency,[5],inactive
C[Si](C)O[Si](C)(C)O[Si](C)(C)O[Si](C)C,Potency,[1],inactive
same,Potency,[6],"inconclusive: 100 µM [inhibitor, partial curve, poor fit]"
same,Potency,[4],"inconclusive: 39.9 µM [inhibitor, partial curve]"
O=C(Cl)c1ccc(F)c(Cl)c1,Potency,[7],inactive
same,Potency,[8],"inconclusive: 48.6 µM [rising, partial curve]"
O=C(c1ccccc1)C(O)c1ccccc1 (centres undefined),Potency,[9],"inconclusive: 34.4 µM [activator, partial curve, poor fit]"
Oc1ccc2c(c1)OC[C@@H](N1CCC(O)(c3ccc(F)cc3)CC1)[C@H]2O,Potency,[6],active: 13.8 µM
CCC[C@H](N[C@@H](C)C(=O)N1[C@H](C(=O)O)C[C@@H]2CCCC[C@@H]21)C(=O)OCC,Potency,[6],inactive
O=C(C1CCCCC1)N1CC(=O)N2CCc3ccccc3C2C1 (centres undefined),Potency,[10],"inconclusive: 14.1 µM [activator, full curve, poor fit]"
same,Potency,[11],"inconclusive: 15.8 µM [activator, partial curve]"
